# Laboratory results from PubChem BioAssay AID995 (National Center for Advancing Translational Sciences (NCATS), 2007).
# The campaign covered roughly 72,000 compounds. About 710 (0.99%) were called active. Inconclusive means that the source gave no clear call. Such entries were picked first, then a sample of the others. Calls follow the shape of the dose curve; as a rule, active = well fitted inhibition curve with a large enough effect; inconclusive = small, poorly fitted or top-dose-only effect; inactive = no such curve, though single readings can be large or run the other way. Potencies of inconclusive entries are left out as doubtful fits.
# Experiment: qHTS Assay for Inhibitors of the ERK Signaling Pathway using a Homogeneous Screening Assay; also: nearly all actives have a fitted effect of over 55% in size
# Details: HEK293-V1b, vasopressin-stimulated pERK AlphaScreen; activity, negative = inhibition: at 57.5 µM (top of the series) unless noted
# Method in brief: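 Overnight-seeded V1b-HEK293 cells in 1% FBS got compound, then vasopressin (25 nM final, 5 min, 37C), then lysis buffer. AlphaScreen detection of phospho-ERK; activity normalized to basal and full-stimulation controls.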
# % is scaled to controls: 0 for no effect and ±100 for the full control effect; potency is read from the fitted curve at half-maximal effect; tags tell the direction and shape of the fitted curve.
SMILES,"activity, negative = inhibition",Potency
CCOC(=O)c1cnc(-n2nc(C)cc2C)nc1Nc1cccc(C(=O)O)c1,inactive: 7.49%,–
CCCOC(=O)Nc1ccc(C(N)=O)cc1,–,"inconclusive [inhibitor, full curve, poor fit]"
C=CCn1c(SCC(=O)c2cccs2)nc2sc(CC)cc2c1=O,–,"inconclusive [inhibitor, partial curve]"
C1CCC(c2nn3c(-c4n[nH]c5c4CCC5)nnc3s2)CC1,–,"inconclusive [inhibitor, partial curve]"
CCOC(=O)Cc1c(C)nc(-c2ccccc2)[nH]c1=O,–,"inconclusive [inhibitor, partial curve]"
O=C(NC1=NCCS1)c1cc2ccccc2o1,inactive: -7.87%,–
O=C(CCCCCn1c(=O)[nH]c2ccccc2c1=O)NCCCN1CCN(c2ccccc2F)CC1,–,"inconclusive [inhibitor, single point]"
CCn1cc(C(=O)OCc2ccccc2)c(=O)c2ccc(C)nc21,–,"inconclusive [inhibitor, partial curve]"
Cc1ccc(F)cc1NC(=O)C1CCCN(c2ncccn2)C1 (configuration not stated),–,"inconclusive [inhibitor, partial curve]"
Cn1cccc1Cc1nnc(SCC(=O)N2CCc3ccccc32)n1CCc1ccccc1,–,active: 15.8 µM
CCOC(=O)c1sc(NC(=O)CSc2nnnn2-c2ccccc2)nc1C,–,"inconclusive [inhibitor, single point]"
Cc1cc(NC(=O)c2ccc(NC(=O)c3cccs3)cc2)no1,inactive: -31.6%,–
COc1cccc(Cn2c(=O)c(-c3cc(F)cc(F)c3)nc3cnc(N4CCNCC4)nc32)c1,–,"inconclusive [inhibitor, full curve, poor fit]"
c1ccc(Nc2nc(-c3ccc4c(c3)OCO4)nc3ccccc23)cc1,–,active: 15.8 µM
COc1ccc(-n2c(Cc3cccn3C)nnc2SCC(=O)Nc2ccc(F)cc2)cc1,–,"inconclusive [inhibitor, partial curve, poor fit]"
Nc1nc(N)c2nc(-c3ccccc3)c(N)nc2n1,–,inactive
CC1=C(C(=O)OCc2ccccc2)C(c2ccccc2)NC(=O)N1CCCCCC(=O)O (configuration not stated),inactive: -11.9%,–
O=C(OCc1csc(-c2ccccc2)n1)c1cccs1,inactive: 47.9%,–
O=C1c2ccccc2S(=O)(=O)N1Cc1nc2ccccc2s1,inactive: 14%,–
CCCCCCn1c(N(CC)CC)nc2c1c(=O)[nH]c(=O)n2C,–,"inconclusive [inhibitor, single point]"
N#C/C(=C\c1ccc[nH]1)Sc1nc2ccccc2s1,–,"inconclusive [inhibitor, full curve]"
COc1cccc(-c2cncnc2NCCc2c[nH]c3ccc(OC)cc23)c1,–,"inconclusive [inhibitor, single point]"
O=C(NCc1cc(F)cc2c1OCCO2)[C@H]1C[C@@H]1[C@H](NP(=O)(c1ccccc1)c1ccccc1)c1ccccc1,–,"inconclusive [inhibitor, single point]"
CCOC(=O)C1CCCN(Cc2nc(N)nc(Nc3ccc(Cl)cc3)n2)C1 (configuration not stated),–,"inconclusive [inhibitor, partial curve]"

SMILES,"activity, negative = inhibition",Potency
CCN1CCN(C(=O)c2cc3cc4cc(OC)ccc4nc3s2)CC1,–,"inconclusive [inhibitor, partial curve]"
CC1CCCN(c2nc3ccsc3c(=O)s2)C1 (configuration not stated),inactive: 19.1%,–
CO[C@H]1COC(=O)C/C=C\[C@@H](C)COC(=O)[C@H]2CCCN2C(=O)C/C=C\[C@H]1C,inactive: 14% [at 11.5 µM],–
Cc1ccc(C(=O)Cn2c3c(sc2=N)CCCC3)cc1,–,"inconclusive [inhibitor, full curve]"
Cc1nc(C)c(-c2csc(NCc3ccco3)n2)s1,–,"inconclusive [inhibitor, partial curve]"
O=C(O)c1ccc(-n2nnnc2SCc2ccccc2F)cc1,–,"inconclusive [inhibitor, partial curve, poor fit]"
CCC(=O)O[C@H]1C(O[C@@H]2C(C)[C@H](O[C@H]3C[C@@](C)(OC)C(O)C(C)O3)C(C)C(=O)OC(CC)[C@@](C)(O)C(O)[C@H](C)C(=O)C(C)C[C@]2(C)O)OC(C)CC1N(C)C (some centres not stated),–,"inconclusive [inhibitor, single point]"
COc1ccc(-c2cn3ccccc3n2)cc1OC,–,"inconclusive [inhibitor, full curve, poor fit]"
CCOc1ccc(NCC2CCOC(C)(C)C2)cc1 (configuration not stated),–,"inconclusive [inhibitor, partial curve]"
CCOC(=O)c1ccc(NC(=O)CCc2nc(-c3ccccc3Cl)no2)cc1,–,"inconclusive [inhibitor, partial curve, poor fit]"
O=C(Nc1ccc2c(c1)nc1n2CCCCC1)c1cc(S(=O)(=O)N2CCOCC2)ccc1Cl,–,"inconclusive [inhibitor, single point]"
O=C(NCC(=O)N(Cc1cccs1)C(C(=O)NC1CCCC1)c1ccco1)c1cccs1 (configuration not stated),inactive: -5.48%,–
c1cncc(CNc2ccnc(-c3ccc4c(c3)OCO4)n2)c1,–,"inconclusive [inhibitor, single point]"
COc1cccc(O)c1O,inactive: -30.6%,–
COc1cc(-c2nnc(-c3ccco3)o2)ccc1OCc1ccccc1,inactive: 7.56%,–
C(=N\C(/N=C/c1ccco1)c1ccco1)/c1ccco1,–,"inconclusive [inhibitor, partial curve]"
Cc1ccc(C)c(NC(=O)c2ccc3c(c2)N(Cc2ccc(F)cc2)C(=O)CS3=O)c1 (configuration not stated),inactive: -1.91%,–
C[C@H](C(=O)c1ccccc1)[C@@H](c1ccccc1)N1CCOCC1,inactive: -6.98% [at 11.5 µM],–
COc1ccc(-c2nnc(-c3cccnc3)o2)cc1OC,–,"inconclusive [inhibitor, partial curve]"
Cc1ccc(Cn2ccc(NC(=O)c3cc(CC(C)C)on3)n2)cc1,–,"inconclusive [inhibitor, single point]"
CC(C)(C)c1ccc(C(=O)Nc2nonc2-c2nc3ccccc3[nH]2)cc1,inactive: -0.3%,–
COc1ccc(NC(=O)CSc2nc3c(c(=O)n2-c2ccc(C)cc2)SCC3)c(OC)c1,–,"inconclusive [inhibitor, partial curve]"
O=S(=O)(NCCOC12CC3CC(CC(C3)C1)C2)c1cccc2nsnc12,–,"inconclusive [inhibitor, partial curve]"
CC1COC2=C1C(=O)C(=O)c1c2ccc2c1CCCC2(C)C (configuration not stated),inactive: 21.2%,–

SMILES,"activity, negative = inhibition",Potency
O=C(Cc1ccccc1)Nc1nc2ccccc2[nH]1,–,"inconclusive [inhibitor, partial curve]"
O=C(CSc1n[nH]c(-c2ccccc2Br)n1)NC(=O)NCc1ccco1,–,"inconclusive [inhibitor, single point]"
COC(=O)[C@@H]1C[C@@]2(O)[C@@H](O)[C@@H](O)[C@@H](O)C[C@H]2N1Cc1ccc(C(F)(F)F)cc1,inactive: 4.58%,–
O=S(=O)(NC1c2cccc3cccc(c23)C1N1CCN(CCO)CC1)c1ccccc1 (configuration not stated),–,"inconclusive [inhibitor, single point]"
ClCCl,inactive: 15.7%,–
O=C(CSc1ncn(-c2ccccc2)n1)NCc1ccccc1,–,"inconclusive [inhibitor, full curve, poor fit]"
CC1=CC(C)(C)N(C(=O)CSc2nccn2C)c2cc(C)ccc21,–,"inconclusive [inhibitor, single point]"
N#C/C(=C1\CCCN1)c1ccc2ccccc2n1,–,active: 15.8 µM
COc1cc(OC)c(C2=NOC(C(=O)Nc3cc(C)nn3-c3ccccc3)C2)cc1Cl (configuration not stated),–,"inconclusive [inhibitor, single point]"
O[C@@H]1[C@@H]2c3cc4c(cc3CN3CCC(=C[C@@H]1O)[C@H]23)OCO4,–,"inconclusive [inhibitor, full curve]"
COC(=O)c1cc(=O)[nH]c(=O)[nH]1,inactive: -11.5% [at 11.5 µM],–
COc1ccc2c(CC(=O)OCC(=O)c3ccc(F)cc3)coc2c1,inactive: -10.6%,–
COc1cccc(Cn2cccc(NC(=O)NC3CCCCC3)c2=O)c1,–,"inconclusive [inhibitor, partial curve, poor fit]"
N#CCSc1nnc(COc2cccc3ccccc23)n1-c1ccccc1,inactive: -11.3%,–
O=C(OC1CCOC1=O)c1ccc2ccccc2n1 (configuration not stated),inactive: 3.43%,–
Cn1c(-c2ccc(Br)o2)nc2cc(Br)ccc21,–,"inconclusive [inhibitor, partial curve]"
COc1ccc(CNc2cc(-c3ccccc3C)ncn2)c(OC)c1,–,active: 12.6 µM
FC(F)C(F)(F)C(F)(F)C(F)(F)c1cc(-c2ccccc2)n[nH]1,–,active: 2.51 µM
CN(Cc1ccco1)c1ncncc1-c1ccc2c(c1)OCO2,–,"inconclusive [inhibitor, partial curve]"
N#CCCn1c(=O)c(-c2cc(F)cc(F)c2)nc2cnc(Oc3ccccc3)nc21,–,"inconclusive [inhibitor, partial curve]"
Cc1ccc(Cn2c(=S)[nH]c3ccc(N4CCOCC4)cc3c2=O)o1,inactive: 31.7%,–
O=C(c1cccc(F)c1)N1CCC2(CCCN(Cc3cc(C(F)(F)F)cc(C(F)(F)F)c3)C2)CC1,inactive: -0.514%,–
C=CCSc1nc2c(c(=O)[nH]c(=O)n2C)n1C/C=C(/C)Cl,–,"inconclusive [inhibitor, partial curve]"
Cc1ccc(C(=O)COc2cccc(NC(=O)c3ccco3)c2)cc1,–,"inconclusive [inhibitor, single point]"
